Among all 330,000 compounds or so, about 4,200 (1.3%) were called active. Inconclusive means that the source gave no clear call. Such entries were picked first, then a sample of the others. Calls come from the whole dose curve; as a rule, active = well fitted activation curve with a large enough effect; inconclusive = small, poorly fitted or top-dose-only effect; inactive = no such curve, though single readings can be large or run the other way. Potencies beside an inconclusive call are fits to weak or partial responses and may not hold up.
Experiment: qHTS screen for small molecules that induce genotoxicity in human embryonic kidney (HEK293T) cells expressing luciferase-tagged ELG1; note: nearly all actives have a fitted effect of over 60% in size
Conditions: HEK293T ELG1-luciferase reporter, luminescence, 16 h; series mostly up to 46 µM
Summary of the method: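 Genotoxicity was scored as increased ELG1-luciferase reporter signal, measured by ONE-Glo luminescence (30 min, room temperature). Compound or vehicle exposure of the HEK293T reporter cells lasted 16 hr at 37°C.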
Potency is the fitted concentration of half-maximal effect; tags give direction and shape of the fitted curve.

| Compound | Potency |
| --- | --- |
| Cc1ccc(-n2nnc(-c3cc4ccccc4n3C)n2)cc1 | inconclusive: 6.51 µM [activator, partial curve] |
| Cc1cc(C)c2cc(CN(CCN3CCCC3)C(=O)Nc3ccc(F)cc3)c(=O)[nH]c2c1 | inactive |
| NC(=O)[C@H]1CC2(CC(c3cccc(NC(=O)COc4ccc(Cl)cc4)c3)=NO2)CN1C(=O)Cc1ccc([N+](=O)[O-])cc1 (stereo partly drawn) | inactive |
| O=C(Nc1cccc(-c2cn3ccccc3n2)c1)c1cccs1 | inconclusive: 3.66 µM [activator, partial curve, poor fit] |
| CCn1c(O)c(C=NC2CCCC2)sc1=S | inconclusive: 32.6 µM [activator, single point] |
| O=C(Cn1cc(SCc2ccc(F)cc2)c2ccccc21)N1CCOCC1 | inactive |
| Cc1ccc(Nc2ncnc3nc[nH]c23)cc1Cl | active: 5.8 µM |
| COc1cc(/C=C/C(=O)NCc2nc3ccccc3[nH]2)cc(OC)c1OC | inconclusive: 16.4 µM [activator, partial curve, poor fit] |
| Cc1cc(Cl)ccc1OCC(=O)NC(=S)Nc1ccc(Cl)cn1 | inactive |
| COCCOC(=O)c1[nH]c2c(c1C)C(=O)C(C(=O)OC)C(C)C2 (stereo not drawn) | active: 16.4 µM |
| CC(C)(C)c1ccc(C(=O)Nc2ccc([N+](=O)[O-])cn2)cc1 | inconclusive: 2.06 µM [activator, full curve] |
| CCOC(=O)C(C)C(C)=O (stereo not drawn) | inactive |
| O=C(Nc1cc(Cl)ccc1N1CCCCC1)c1cccs1 | inactive |
| Cc1ccc2nc(-c3ccc(NC(=O)COC(=O)c4cncc(Br)c4)cc3)sc2c1 | active: 1.3 µM |
| O=C1CN(c2ccccc2)C(=S)N1C(=O)c1ccccc1 | inconclusive: 2.59 µM [activator, full curve, poor fit] |
| CCC(=O)NCCc1nc2cc(NC(=O)c3ccccc3OC)ccc2n1C | inconclusive: 14.1 µM [activator, partial curve, poor fit] |
| COc1ccc(-c2cn3cccnc3n2)cc1Br | inconclusive: 20.6 µM [activator, partial curve, poor fit] |
| Cc1nn(-c2ccccc2)c2sc(C(=O)N3CCOCC3)cc12 | inconclusive: 20.6 µM [activator, partial curve, poor fit] |
| CC(C)(C)S(=O)(=O)c1cnc(N2CCCCC2)nc1N | inactive |
| CSc1ccc(-c2nnn(Cc3ccc(C)cc3)n2)cc1 | inconclusive: 12.6 µM [activator, partial curve, poor fit] |
| Cc1ccnc2ccc(-c3nc4ccccc4o3)cc12 | inconclusive: 13 µM [activator, partial curve, poor fit] |
| CCOc1ccc(-c2nnc(N)s2)cc1 | active: 11.2 µM |
| COc1ccc(OC)c(N/C=C/C(=O)c2ccc(OC)c(OC)c2)c1 | inconclusive: 23.1 µM [activator, partial curve, poor fit] |
| COc1cc(N)ccc1NC(=O)c1cc2ccccc2o1 | inconclusive: 4.61 µM [activator, partial curve, poor fit] |

| Compound | Potency |
| --- | --- |
| CC(Cc1ccco1)NC(=O)c1cccc(S(=O)(=O)N(C)C)c1 (stereo not drawn) | active: 14.6 µM |
| Cc1cc(C)cc(N(CC(=O)NC2CCCC2)C(=O)CNC(=O)c2cccs2)c1 | inactive |
| CC(C)C(=O)Nc1cccc(C(=O)Nc2nnc(C(C)C)s2)c1 | inconclusive: 8.2 µM [activator, partial curve] |
| CCOc1cc2c(cc1OCC)CN(C(=O)c1cccc(S(=O)(=O)N3CCCC3)c1)CC2 | inactive |
| COc1ccc(NC(=O)CNS(=O)(=O)c2cccs2)cc1 | inconclusive: 23.1 µM [activator, partial curve, poor fit] |
| O=C(CN1CCN(C(=O)CNC(=O)c2ccc3c(c2)OCO3)CC1)Nc1ccc(F)cc1 | inactive |
| Cc1ccc(Nc2ccc(NCc3ccccc3)nn2)cc1C | inconclusive: 25.9 µM [activator, partial curve, poor fit] |
| c1coc(C2Nc3ccccc3-c3nc4ccccc4n32)c1 (stereo not drawn) | inconclusive: 8.2 µM [activator, partial curve] |
| CCCCNC(=S)N1CCC(Cc2ccccc2)CC1 | inactive |
| O=C(NCCc1ccccc1)c1ccccc1NC(=O)C1CCCO1 (stereo not drawn) | inconclusive: 2.31 µM [activator, full curve] |
| O=C(CCCc1ccccc1)c1ccccc1 | inconclusive: 5.17 µM [activator, partial curve] |
| CCCCOc1ccc(-c2ncc([N+](=O)[O-])cn2)cc1 | inconclusive: 13 µM [activator, partial curve] |
| CCOC(=O)Nc1ccc2c(c1)OCO2 | inconclusive: 16.4 µM [activator, partial curve, poor fit] |
| CCOC(=O)NCc1ccc2[nH]c(C)cc2c1 | inconclusive: 18.3 µM [activator, partial curve, poor fit] |
| N#C/C(=N\Nc1cccc([N+](=O)[O-])c1)C(=O)c1ccc(Br)cc1 | inactive |
| Cc1ccc2c(c1)NC(=O)c1cc([N+](=O)[O-])ccc1O2 | inconclusive: 2.06 µM [activator, partial curve, poor fit] |
| CN(c1ccccc1)c1ccc(/C=N/N2CCOCC2)cc1 | active: 18.4 µM |
| Cc1ccc(Oc2coc3cc(O)ccc3c2=O)cc1 | inconclusive: 23.1 µM [activator, partial curve, poor fit] |
| COc1ccc(C(=O)C[n+]2cn(C(F)F)c3ccccc32)c(F)c1 | inconclusive: 29.1 µM [activator, partial curve, poor fit] |
| Cc1ccc(-n2ncc(Cl)c2C(=O)NCc2ccccc2)cc1 | inconclusive: 13 µM [activator, partial curve, poor fit] |
| c1coc(-c2nnc(NC3=NCCC3)o2)c1 | active: 16.4 µM |
| COc1ccc(S(=O)(=O)N2c3ccccc3OCC2C(C)(C)C)cc1 (stereo not drawn) | inactive |
| CC(C)NC(=O)c1cc2ccccc2o1 | inactive |
| C/C(Cn1nnc([N+](=O)[O-])n1)=N\NC(=O)c1ccccc1O | inactive |

From PubChem BioAssay AID504466 (National Center for Advancing Translational Sciences (NCATS), 2011)
